Reference: the supplement of paper PMC10723795
Counter-ions that a name gives are not always drawn. The list shows a part of the results.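 The calls were made as follows: active = more than 2 SD below the DMSO mean: under 0.85 at 10 µM or 0.885 at 1 µM; inactive = the rest.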 Most values come without repeats; read them as rough.

Test system: RPE1
Test: nucleolar normality score relative to DMSO (fraction of DMSO control); RPE1 is a non-cancer human cell line; higher = more normal nucleoli (less nucleolar stress)
Settings: 24 h
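Also: fixed cells immunolabelled for nucleolin and UBF, 40 image fields per well in 384-well plates, per-cell score = nucleolin nucleolar/nucleoplasm intensity ratio divided by the matching UBF ratio.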

Row | SMILES | nucleolar normality score (1 µM) | nucleolar normality score (10 µM)
1 | O=C1CCC(N2C(=O)c3ccccc3C2=O)C(=O)N1 (stereo not drawn) [Thalidomide] | inactive: 0.961 | inactive: 1.01
2 | CCCCc1nc(Cl)c(CO)n1Cc1ccc(-c2ccccc2-c2nnn[nH]2)cc1 [Losartan] | inactive: 1 | inactive: 1.07
3 | C=CCn1c(=O)c2cnc(Nc3ccc(N4CCN(C)CC4)cc3)nc2n1-c1cccc(C(C)(C)O)n1 [Adavosertib (MK-1775)] | inactive: 1.01 | inactive: 0.939
4 | CC(NC(=O)Cc1cc(F)cc(F)c1)C(=O)NC1C(=O)N(C)c2ccccc2-c2ccccc21 (stereo not drawn) | inactive: 1.06 | inactive: 1.1
5 | CN(C)CCNC(=O)c1cccn2c(=O)c3cc4ccccc4cc3nc12 | active: 0.11 | active: 0.129
6 | COC(=O)[C@H](CCSC)NC(=O)c1ccc(NC[C@@H](N)CS)cc1-c1ccccc1 | inactive: 0.964 | inactive: 1.03
7 | Cc1cc(C)c(CNC(=O)c2cc(-c3ccc(N4CCN(C)CC4)nc3)cc3c2c(C)cn3C(C)C)c(=O)[nH]1 | inactive: 1 | inactive: 1.01
8 | O=C1c2c(O)cc(O)cc2O[C@H](c2cc(O)c(O)c(O)c2)[C@H]1O [Dihydromyricetin] | inactive: 1.08 | inactive: 1.12
9 | CCc1cnn2c(NCc3ccc[n+]([O-])c3)cc(N3CCCC[C@H]3CCO)nc12 | active: 0.223 | active: 0.225
10 | O=C1NC(=O)[C@@H](c2cn3c4c(cccc24)CCC3)[C@@H]1c1c[nH]c2ccccc12 [Tivantinib (ARQ 197)] | inactive: 1.02 | inactive: 0.877
11 | CC(C(=O)Nc1cccc(/N=C/c2c(O)ccc3ccccc23)c1)c1ccccc1 (stereo not drawn) [Salermide] | inactive: 0.992 | inactive: 1.05
12 | COc1nc(N)nc2c1ncn2[C@@H]1O[C@H](CO)[C@@H](O)[C@@H]1O [Nelarabine] | inactive: 0.998 | inactive: 1.05
13 | CN(C)CCCn1cc(C2=C(c3c[nH]c4ccccc34)C(=O)NC2=O)c2ccccc21 | inactive: 0.977 | inactive: 0.976
14 | O=C(Nc1cccc(Nc2ncc(Br)c(NCCc3cnc[nH]3)n2)c1)N1CCCC1 | inactive: 0.951 | inactive: 1.08
15 | Cn1cnc([N+](=O)[O-])c1Sc1ncnc2[nH]cnc12 [Azathioprine] | active: 0.822 | inactive: 0.964
16 | CC(C)C(=O)Nc1ccc([N+](=O)[O-])c(C(F)(F)F)c1 [Flutamide] | inactive: 0.981 | inactive: 1.03
17 | CC(C)(O)C1CCC(C)(C2C(O)CC3(C)C4CC(OC5OC(CO)C(O)C(O)C5O)C5C(C)(C)C(OC6OCC(O)C(O)C6O)CCC56CC46CCC23C)O1 (stereo not drawn) [Astragaloside A] | inactive: 1 | inactive: 0.917
18 | S=C(NCc1ccc2c(c1)OCO2)N1CCN(c2ncnc3c2oc2ccccc23)CC1 [Amuvatinib (MP-470)] | inactive: 1.05 | inactive: 1.07
19 | CC1(C)CCC2=C(O1)c1ccccc1C(=O)C2=O [Beta-Lapachone] | inactive: 0.975 | inactive: 1.03
20 | Cc1cc(C)nc(NC(=S)N2CCN(Cc3ccc(C(F)(F)F)cc3)CC2)c1 | inactive: 1.09 | inactive: 1.08

Row | SMILES | nucleolar normality score (1 µM) | nucleolar normality score (10 µM)
21 | Cc1cc(O)c(-c2ccc([C@@H](C)CN(C)C)cc2)c2c1[nH]c(=O)c1sccc12 | active: 0.203 | active: 0.182
22 | CCOc1cc(C(C)(C)C)ccc1C1=N[C@@](C)(c2ccc(Cl)cc2)[C@@](C)(c2ccc(Cl)cc2)N1C(=O)N1CCN(CCCS(C)(=O)=O)CC1 | inactive: 1.06 | inactive: 1.02
23 | CN1CCN(c2ccc(OC(F)(F)F)c(Nc3ncc4c(n3)-c3c(c(C(N)=O)nn3CCO)CC4)c2)CC1 | active: 0.88 | active: 0.826
24 | Cc1cc(O)c2c(c1)C(=O)c1cc(O)cc(O)c1C2=O [Emodin] | inactive: 1.09 | inactive: 1.12
25 | Cn1cc(-c2ccc3nnc(Sc4ccc5ncccc5c4)n3n2)cn1 | inactive: 1.11 | inactive: 1.1
26 | Clc1ccc(Nc2nnc(Cc3ccncc3)c3ccccc23)cc1 [Vatalanib (PTK787) 2HCl] | inactive: 1.06 | inactive: 1.06
27 | COC(=O)c1ccc2c(C(=Nc3ccc(N(C)C(=O)CN4CCN(C)CC4)cc3)c3ccccc3)c(O)[nH]c2c1 [Nintedanib Ethanesulfonate Salt] | inactive: 0.934 | inactive: 1.04
28 | COC(=O)c1ccc2c(C(=Nc3ccc(N(C)C(=O)CN4CCN(C)CC4)cc3)c3ccccc3)c(O)[nH]c2c1 [Nintedanib (BIBF 1120)] | inactive: 1.05 | active: 0.741
29 | CC(C)=CCOc1c2ccoc2cc2oc(=O)ccc12 [Isoimperatorin] | inactive: 1.11 | inactive: 0.93
30 | CN1CCN(C2CCN(C(=O)Nc3cc(Oc4ccc(NC(=O)C5(C(=O)Nc6ccc(F)cc6)CC5)c(F)c4)ccn3)CC2)CC1 [Golvatinib (E7050)] | inactive: 1.01 | inactive: 1.01
31 | O=c1[nH]cnc2[nH]ncc12 [Allopurinol Sodium] | inactive: 1.01 | inactive: 1.07
32 | Cc1cc2c(F)c(Oc3ncnn4cc(OC[C@@H](C)O)c(C)c34)ccc2[nH]1 | inactive: 0.998 | inactive: 1.04
33 | COc1cc(/C=C/C(=O)CC(=O)/C=C/c2ccc(O)c(OC)c2)ccc1O [Curcumin] | inactive: 1.03 | inactive: 1.08
34 | Cn1cc(-c2ccc(S(=O)(=O)n3ccc(/C=C/C(=O)Nc4ccccc4N)c3)cc2)cn1 | inactive: 0.979 | inactive: 1.03
35 | CC/C(=C(\c1ccccc1)c1ccc(OCCN(C)C)cc1)c1ccccc1 [Tamoxifen Citrate] | inactive: 1.03 | inactive: 1.11
36 | O=c1[nH]nc(Sc2ncc([N+](=O)[O-])s2)n1-c1ccc2c(c1)OCCO2 | inactive: 0.952 | inactive: 1.1
37 | C=C(c1ccc(C(=O)O)cc1)c1cc2c(cc1C)C(C)(C)CCC2(C)C [Bexarotene] | inactive: 1.04 | inactive: 1.04
38 | COc1cc2ncnc(Nc3ccc(F)c(Cl)c3)c2cc1OCCCN1CCOCC1 [Gefitinib (ZD1839)] | inactive: 0.965 | inactive: 1.02
39 | CN1CCN(c2nc(C3=C(c4c[nH]c5ccccc45)C(=O)NC3=O)c3ccccc3n2)CC1 [Sotrastaurin] | inactive: 1.02 | inactive: 0.895
40 | COC(=O)[C@]12CCC(C)(C)C[C@H]1[C@H]1C(=O)C=C3[C@@]4(C)C=C(C#N)C(=O)C(C)(C)[C@@H]4CC[C@@]3(C)[C@]1(C)CC2 [Bardoxolone Methyl] | inactive: 0.9 | active: 0.268

Row | SMILES | nucleolar normality score (1 µM) | nucleolar normality score (10 µM)
41 | Nc1nc2[nH]cc(CCc3ccc(C(=O)N[C@@H](CCC(=O)O)C(=O)O)cc3)c2c(=O)[nH]1 [Pemetrexed Disodium Hydrate] | inactive: 1.02 | inactive: 1.07
42 | Cc1ccc(S(=O)(=O)Nc2cc(-c3ccc(C#N)s3)ccc2C)cc1 | inactive: 0.932 | active: 0.808
43 | CCN1CCN(Cc2ccc(Nc3ncc(F)c(-c4cc(F)c5nc(C)n(C(C)C)c5c4)n3)nc2)CC1 | inactive: 0.888 | inactive: 1
44 | CCN1CCN(Cc2ccc(Nc3ncc(F)c(-c4cc(F)c5nc(C)n(C(C)C)c5c4)n3)nc2)CC1 [Abemaciclib] | inactive: 1.06 | inactive: 0.907
45 | O=C(O)c1cc(I)ccc1NC(=O)[C@H](Cc1ccccc1)NCc1ccccc1 | inactive: 1.03 | inactive: 1.02
46 | O=C[C@H](O)[C@H](O)[C@H](O)CO [D-Ribose] | inactive: 0.927 | inactive: 1.03
47 | O=C(O)C1(C(=O)O)CCC1.[NH2-].[NH2-].[Pt+2] [Carboplatin] | inactive: 1.05 | inactive: 1.07
48 | O=C(c1cncc(Br)c1)N1CCC(N2CCCC2)CC1 | inactive: 1.02 | inactive: 1.09
49 | CCCCCOC(=O)Nc1nc(=O)n([C@@H]2O[C@H](C)[C@@H](O)[C@H]2O)cc1F [Capecitabine] | inactive: 1.05 | inactive: 1.05
50 | CC(C)=CCC/C(C)=C/CC/C(C)=C/CSc1ccccc1C(=O)O [Salirasib] | inactive: 1.03 | inactive: 0.986
51 | COc1ccc2cc(-c3nc(-c4ccc([S+](C)[O-])cc4)[nH]c3-c3ccncc3)ccc2c1 (stereo not drawn) [Tie2 kinase inhibitor] | inactive: 1 | inactive: 0.984
52 | COc1cc2ncnc(Oc3ccc(CC(=O)Nc4cnn(C(C)C)c4)cc3)c2cc1OC | inactive: 1.06 | inactive: 0.951
53 | COc1ncc(-c2ccc3nccc(-c4ccnnc4)c3c2)cc1NS(=O)(=O)c1ccc(F)cc1F | active: 0.636 | active: 0.489
54 | c1cc(-c2cnn3cc(-c4ccc(OCCN5CCCCC5)cc4)cnc23)ccn1 [Dorsomorphin (Compound C) 2HCl] | inactive: 1.06 | inactive: 1.13
55 | CC1COCCN1c1cc(C2(S(C)(=O)=O)CC2)nc(-c2cccc3[nH]ccc23)n1 (stereo not drawn) | inactive: 0.977 | inactive: 0.888
56 | O=C1[C@H](CC[C@H](O)c2ccc(F)cc2)[C@@H](c2ccc(O)cc2)N1c1ccc(F)cc1 [Ezetimibe] | inactive: 1.03 | inactive: 1.02
57 | CC1(C)CNc2cc(NC(=O)c3cccnc3NCc3ccncc3)ccc21 [Motesanib Diphosphate (AMG-706)] | inactive: 1.03 | inactive: 1.07
58 | Oc1cc(O)c(Cl)cn1 [Gimeracil] | inactive: 1.05 | inactive: 1.11
59 | COc1ccc(N2C(=O)/C(=C\c3ccc([N+](=O)[O-])s3)SC2=S)cc1 | active: 0.818 | active: 0.592
